Experimental findings from the supplement of paper PMC3334620 are described below.

In all, about 33,000 sequences were measured (“E-score (-0.5 to 0.5)”: median about -0.021, highest 2% from about 0.32 on). Some of the results follow.

This assay has as its target T1, Zap1 (UniProt P47043).
T1 sequence: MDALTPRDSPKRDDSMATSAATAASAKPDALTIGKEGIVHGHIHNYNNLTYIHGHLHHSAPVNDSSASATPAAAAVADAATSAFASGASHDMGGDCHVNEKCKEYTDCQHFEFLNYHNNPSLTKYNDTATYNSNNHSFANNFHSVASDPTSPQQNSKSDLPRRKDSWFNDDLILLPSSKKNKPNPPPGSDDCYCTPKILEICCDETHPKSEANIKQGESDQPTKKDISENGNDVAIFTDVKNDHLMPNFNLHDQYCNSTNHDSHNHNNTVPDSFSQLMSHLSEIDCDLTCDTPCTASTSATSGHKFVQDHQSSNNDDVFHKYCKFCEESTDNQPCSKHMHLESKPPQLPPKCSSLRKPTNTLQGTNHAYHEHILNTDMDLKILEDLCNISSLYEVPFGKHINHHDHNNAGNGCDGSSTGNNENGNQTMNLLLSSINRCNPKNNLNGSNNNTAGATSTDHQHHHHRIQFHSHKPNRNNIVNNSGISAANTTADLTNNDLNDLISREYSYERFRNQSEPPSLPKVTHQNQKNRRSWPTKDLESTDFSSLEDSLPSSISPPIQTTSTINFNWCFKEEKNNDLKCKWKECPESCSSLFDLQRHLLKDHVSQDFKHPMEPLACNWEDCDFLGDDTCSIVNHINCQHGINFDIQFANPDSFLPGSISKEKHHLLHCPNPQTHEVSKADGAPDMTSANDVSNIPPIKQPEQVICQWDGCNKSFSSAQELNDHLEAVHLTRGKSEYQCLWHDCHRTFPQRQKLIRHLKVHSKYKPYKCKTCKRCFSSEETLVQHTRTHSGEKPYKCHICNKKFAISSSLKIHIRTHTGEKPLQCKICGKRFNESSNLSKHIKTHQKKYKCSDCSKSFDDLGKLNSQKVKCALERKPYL
In words: PBM E-score (8-mer binding enrichment) (E-score (-0.5 to 0.5)); higher = stronger / more preferred TF binding; most listed sequences are background and not binding sites. As to conditions: protein concentration: 200 nM; construct: GST-full length. The procedure, abridged:
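Using PURExpress in vitro transcription/translation, GST-tagged yeast transcription factors were made in full-length or DNA-binding-domain form. These were applied at about 100-200 nM to double-stranded universal all-10-mer Agilent arrays, and bound protein was detected with fluorescent anti-GST. Scans were normalised with masliner before the Universal PBM Analysis Suite assigned E-scores to ungapped eight-base words pooled with their reverse complements.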
Take CACTTTCC: the “PBM E-score” value was -0.234.
The result for GCGTTAGC reads -0.00904; that for TGTGTAAA, 0.118.
Consider ACCGTAGT, for which the “PBM E-score” value was determined as 0.03.
The result for AACAATCA reads 0.162; that for CAATCACA, -0.00441; that for ATGAATTC, 0.0847.
Turning to AAACCCAA, the “PBM E-score” value was found to be 0.312.
The result for ATCATAGG reads -0.0398; that for CCAAACTC, 0.0772.
The result for AACGCTCG reads -0.121.
As for GATGGGGC, the “PBM E-score” value is -0.213.
On to CGACCTAC, for which the “PBM E-score” value was -0.114.
The result for ACCCGCGC reads 0.277.
Regarding GGCCTACA, the “PBM E-score” value stood at 0.00437.
The result for CCGTACAG reads 0.00832.
As for CGGGGAAC, the “PBM E-score” value was -0.0353.
The result for AAAATCGC reads 0.0335; that for CTGTTCGC, 0.0386.
The result for GTTACTAA reads 0.276; that for GCCCACCC, 0.335.
The result for CTGGGGTA reads 0.269; that for CTTAGATA, 0.182.
For the sequence GTCGGGTA, the “PBM E-score” value is 0.15.
The result for GGGTCTAA reads 0.0858.
The result for ATACCGTA reads 0.0745; that for ATGGCCAT, 0.332; that for AATCGCCT, -0.178.
Regarding GTTGTGAA, the “PBM E-score” value was determined as 0.183.
Turning to CTATTGTC, the “PBM E-score” value is -0.146.
The result for ACGGGAAT reads -0.212; that for ACCAAGTA, 0.199.
With GATGGAAA, the “PBM E-score” value is -0.175.
For TCCTCTCA, the “PBM E-score” value is -0.174.
The result for ACGGCAGG reads -0.214.
With ATTTACTA, the “PBM E-score” value came to 0.0976.
The result for GTATATGA reads 0.0557.
CCGGATAA: the “PBM E-score” value is -0.0864.
Regarding ATTTTTCG, the “PBM E-score” value worked out at 0.224.
As to GGGTTCAA, the “PBM E-score” value came out at 0.129.
The result for CTCTCCCA reads -0.263; that for GTTGGAGA, -0.0385; that for CACCGTTA, -0.0212.
The result for AGGCTAAA reads 0.0665.
On to AAATATTG, for which the “PBM E-score” value worked out at 0.183.
On to GTCTATGA, for which the “PBM E-score” value turned out to be 0.00047.
For CCGGCAAG, the “PBM E-score” value is -0.0357.
The result for CGTCTCGA reads 0.012; that for GGCGACAC, -0.0969; that for AAGGATCC, -0.102.
The result for AATGATTA reads 0.198.
The result for AGTTCATC reads -0.208; that for AAGGATGT, -0.0318; that for GGCGGGTA, 0.179.
Consider CAAAACAA, for which the “PBM E-score” value is 0.0663.
The result for GACATTCC reads -0.23; that for CCGCCCAC, 0.0267.
As for ACGCACAG, the “PBM E-score” value was -0.0633.
The result for CTTGCACC reads 0.108; that for CACTCATG, -0.0864.
The result for AGGCGCTA reads -0.18; that for AAGGGCTA, -0.13; that for CGAGGATC, -0.0132.
The result for CCTGGGAG reads -0.0746; that for GGGTGACC, 0.385; that for AACGTTAC, 0.111.
With AACTATAC, the “PBM E-score” value turned out to be 0.147.
The result for GCGATGCA reads -0.334; that for GAAGATCA, -0.24.
Regarding CGAACAGA, the “PBM E-score” value worked out at 0.0674.
The result for ACCAAACC reads 0.128.
For ACCGACAT, the “PBM E-score” value is -0.0697.
The result for GTCGCGAA reads -0.0334.
In the case of CCGGGTTC, the “PBM E-score” value turned out to be 0.247.
The result for GAGAGCCA reads -0.231; that for TATCCGAA, 0.126.
For the sequence GCCAGGTA, the “PBM E-score” value was -0.0589.
The result for CCAGGCTC reads -0.165; that for AAGATCAC, 0.122; that for ACCTAGCT, -0.147.
The result for AATGGAGT reads -0.0281; that for AAAATCAT, 0.108; that for ATGTCCTG, -0.0212.
For ATTGGATG, the “PBM E-score” value is -0.0351.
The result for GATCTTTA reads 0.187; that for AGGTCTTC, -0.0293.
